Results: publication PMC6005513
Positions count from the first letter of the chain named. Results are given in words; binding and its absence hold for the method and conditions named. Some entries that bind do so weakly or less than the wild type.

Columns and labels:
Assay in all cases: binding of fluorescently labelled peptide to transfected cells, plate fluorescence scan; 10 nM myr-preS1-Al633 peptide in DMEM, 20 min, 37°C, on NTCP/Ntcp-transfected HEK293 cells in 24-well plates; washed with DMEM 2 min at 37°C; plates scanned at room temperature (Typhoon FLA 7000, 633 nm), total signal per area; only the binder purified
[1] = biological target: Papio hamadryas (hamadryas baboon) Ntcp, wild type (Papio hamadryas)
[2] = biological target: T1, Saguinus oedipus (cotton-top tamarin) Ntcp, wild type (Saguinus oedipus)
T1 sequence: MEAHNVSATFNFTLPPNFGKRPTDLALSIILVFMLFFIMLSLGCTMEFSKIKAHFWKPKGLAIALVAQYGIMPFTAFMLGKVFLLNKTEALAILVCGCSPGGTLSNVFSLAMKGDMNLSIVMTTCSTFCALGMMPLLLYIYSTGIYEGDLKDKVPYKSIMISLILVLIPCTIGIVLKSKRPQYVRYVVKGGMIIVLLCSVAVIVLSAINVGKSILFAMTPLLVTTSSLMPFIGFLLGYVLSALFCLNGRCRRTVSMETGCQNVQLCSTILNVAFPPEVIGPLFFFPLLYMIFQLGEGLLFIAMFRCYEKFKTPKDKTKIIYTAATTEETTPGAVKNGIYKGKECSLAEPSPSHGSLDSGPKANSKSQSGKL

human NTCP G158S (human) = biological target: T2, human NTCP G158S (human) (UniProt Q14973)
T2 sequence: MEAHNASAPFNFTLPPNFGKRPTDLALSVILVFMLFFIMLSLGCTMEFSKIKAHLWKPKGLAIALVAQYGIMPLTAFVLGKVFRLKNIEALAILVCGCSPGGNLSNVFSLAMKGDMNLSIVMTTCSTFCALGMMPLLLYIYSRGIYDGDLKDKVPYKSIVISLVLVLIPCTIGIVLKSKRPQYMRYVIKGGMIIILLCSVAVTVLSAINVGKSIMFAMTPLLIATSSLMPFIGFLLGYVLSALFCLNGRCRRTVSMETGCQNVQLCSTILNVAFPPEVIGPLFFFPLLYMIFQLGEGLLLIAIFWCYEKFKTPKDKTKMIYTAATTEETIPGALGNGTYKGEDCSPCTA

human NTCP G158R (human) = biological target: T3, human NTCP G158R (human) (UniProt Q14973)
T3 sequence: T2 sequence with S158R

[3] = biological target: T4, Callithrix jacchus (common marmoset) Ntcp G158S (Callithrix jacchus) (UniProt F7HA36)
T4 sequence: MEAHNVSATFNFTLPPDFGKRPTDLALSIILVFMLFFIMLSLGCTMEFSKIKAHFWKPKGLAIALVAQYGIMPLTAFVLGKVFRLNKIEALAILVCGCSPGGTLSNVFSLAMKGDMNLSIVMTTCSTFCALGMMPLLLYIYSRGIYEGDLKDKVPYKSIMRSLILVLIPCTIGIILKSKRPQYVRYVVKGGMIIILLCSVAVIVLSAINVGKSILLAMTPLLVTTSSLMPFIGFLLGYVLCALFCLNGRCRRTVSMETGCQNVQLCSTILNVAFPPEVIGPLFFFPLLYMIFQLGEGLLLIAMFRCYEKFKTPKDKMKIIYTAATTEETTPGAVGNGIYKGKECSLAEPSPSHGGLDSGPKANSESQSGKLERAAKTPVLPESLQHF

human NTCP G158D (human) = biological target: T5, human NTCP G158D (human) (UniProt Q14973)
T5 sequence: T2 sequence with S158D

Substance: HBV myr-preS1-Al633-peptide (from UniProt P03138 2-48)
- binding [1]: no binding (tested: 10 nM)
- binding [2]: no binding (tested: 10 nM)
- binding (human NTCP G158S (human)): binds
- binding (human NTCP G158R (human)): no binding (tested: 10 nM)
- binding [3]: binds
- binding (human NTCP G158D (human)): no binding (tested: 10 nM)
